According to PubChem BioAssay AID504845 (National Center for Advancing Translational Sciences (NCATS), 2011):
Hit rate of the full screen: of about 390,000 compounds, about 150 (0.038%) were called active. About 3% were inconclusive and are not listed. Calls come from the whole dose curve; as a rule, active = well fitted inhibition curve with a large enough effect; inconclusive = small, poorly fitted or top-dose-only effect; inactive = no such curve, though single readings can be large or run the other way. The entries are a selection whose mix differs from that of the whole data set. Some compounds were tested as several samples or in several runs, with calls that do not always agree.

Target: Regulator of G-protein signaling 4 (Homo sapiens) (UniProt P49798)
UniProt P49798, sequence (P49798 whole entry, looked up): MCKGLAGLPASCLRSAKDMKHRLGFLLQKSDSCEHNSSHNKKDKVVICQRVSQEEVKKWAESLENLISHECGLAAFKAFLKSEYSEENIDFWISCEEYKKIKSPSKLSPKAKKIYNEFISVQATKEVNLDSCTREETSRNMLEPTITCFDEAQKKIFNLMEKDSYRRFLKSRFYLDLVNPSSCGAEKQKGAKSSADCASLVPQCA
Assay: Inhibitors of Regulator of G Protein Signaling (RGS) 4: qHTS; note: nearly all actives have a fitted effect of over 75% in size
Settings: Transcreener GDP fluorescence polarization, RGS4-accelerated GTP hydrolysis; series mostly up to 114 µM; activity change, negative = inhibition: at the top concentration
How it was run: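 MLSMR compounds (23 nl, pin-transferred) preincubated 10 min at room temperature with a 500nM (2x) first reagent, then RGS4 at 900nM (2x) plus Transcreener GDP mix added; fluorescence polarization (620/688 nm) read before and after 90 min at 30 °C.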
% is set by controls: 0 for no effect and ±100 for the full control effect; potency is the fitted concentration of half-maximal effect.

| Structure (SMILES) | activity change, negative = inhibition | Potency |
| --- | --- | --- |
| Cc1cc(C)c(/C=C2\C(=O)Nc3ccccc32)[nH]1 | inactive: -8.09% |  |
| Cc1ccc(CNC(=O)CN(c2ccc(C)cc2)S(=O)(=O)c2c(C)nn(C)c2C)cc1 | inactive: -5.8% |  |
| CC(=O)O[C@H]1C(=O)[C@@]2(C)[C@H]([C@H](OC(=O)c3ccccc3)[C@]3(O)C[C@H](OC(=O)[C@H](O)C(NC(=O)c4ccccc4)c4ccccc4)C(C)=C1C3(C)C)[C@]1(OC(C)=O)CO[C@@H]1C[C@@H]2O (stereo not given in full) | inactive: -3.49% |  |
| COc1ccc(CCNC(=O)c2ccc3c(c2)N(Cc2ccc(F)cc2)CCS3)cc1OC | inactive: -0.545% |  |
| C(#Cc1ccccc1)CN1CCN(c2ccccn2)CC1 | inactive: -46.1% |  |
| CC(=O)NCC(=O)N(C)C(C(=O)Nc1ccc(C(C)C)cc1)c1ccccc1 (stereo not given) | inactive: 55.2% |  |
| O=C(c1cc(-c2ccc(O)cc2)on1)N1CCN(c2ccccc2)CC1 | inactive: -10.4% |  |
| O=C(CCCN1C(=O)/C(=C\c2cccs2)SC1=S)NNC(=O)c1ccncc1 | inactive: -26.2% |  |
| CC(=O)c1cc(CN2CCN(CC=C(C)C)C(CCO)C2)cs1 (stereo not given) | inactive: 63.9% |  |
| COc1ccccc1NC(=O)c1cc(C)oc1C | inactive: 73.7% |  |
| O=C(Cn1cnc2c(nnn2Cc2ccccc2F)c1=O)NCc1ccco1 | inactive: 72.9% |  |
| O=C(NN1C(=O)/C(=C\c2ccc(O)c([N+](=O)[O-])c2)SC1=S)c1ccccc1Cl | inactive: 6.37% |  |
| CC(C)(C)[C@]1(O)CCN2C[C@H]3c4ccccc4CCc4cccc(c43)[C@@H]2C1 |  | inactive |
| O=C(c1cc(COc2ccc(F)cc2Cl)on1)N1CCc2ccccc2C1 | inactive: 71.6% |  |
| OCC[C@@H]1C[C@@H](O)[C@H](O)[C@@]2(CCc3ccccc3CO2)O1 | inactive: -3.08% |  |
| COc1cc(NS(C)(=O)=O)ccc1Nc1c2ccccc2nc2ccccc12 | inactive: -18.3% |  |
| C[C@@H]1C[C@H]2[C@@H]3CCC4=CC(=O)C=C[C@]4(C)[C@@]3(F)[C@@H](O)C[C@]2(C)[C@@]1(O)C(=O)CO |  | inactive |
| CCCN(CC(=O)Nc1ccc(Cl)cc1Cl)C(=O)c1ccc(=O)[nH]c1 | inactive: 68% |  |
| O=C(O)CCCCCN1C(=O)/C(=C\c2cn(-c3ccccc3)nc2-c2cccs2)SC1=S | inactive: -64.1% [at 56.9 µM] |  |
| CC1CCN(S(=O)(=O)c2ccc3c(c2)N(C)C(=O)CC(=O)N3C)CC1 | inactive: -15.2% |  |
| O=C(O)/C=C/c1ccc(Cn2ccnc2)cc1 |  | inactive |
| O=C1COc2ccc(S(=O)(=O)N3CCN(c4cccc(Cl)c4)CC3)cc2N1 | inactive: 60.8% |  |
| CCCn1c(=O)c2c(ncn2C)n(CCC)c1=O |  | inactive |
| CC(COc1ccc(/C=C/c2ccccc2)cc1)[N+](C)(C)C (stereo not given) | inactive: -6.87% |  |

| Structure (SMILES) | activity change, negative = inhibition | Potency |
| --- | --- | --- |
| CCc1cc[n+](/C(C(=S)Nc2cccc(C)c2)=C(/[O-])c2ccc(C)c([N+](=O)[O-])c2)cc1 | inactive: -18.1% |  |
| CC(C)CCNC(=O)CCc1nnc(COc2ccccc2)o1 | inactive: 57.6% |  |
| COc1cc2c(C#N)c(N3CCCC3)nc(N)c2c(N)n1 | inactive: 20.6% [at 11.4 µM] |  |
| O=C(CCN1C(=O)/C(=C/c2ccccc2F)SC1=S)N[C@@H](CO)Cc1ccccc1 | inactive: 58.8% |  |
| CCCCC[C@H](O)/C=C/[C@@H]1[C@@H](C/C=C\CCCC(=O)O)[C@@H](O)C[C@H]1O | inactive: 14.4% |  |
| CCN1/C(=C\C(C)=O)Sc2ccc(OC)cc21 | inactive: 9.45% |  |
| COc1cc2c(cc1OC)-c1cc(=Nc3c(C)cc(C)cc3C)n(C)c(=O)n1CC2 | inactive: 18.2% |  |
| CCOCC(=O)Nc1ccc(F)c(F)c1 | inactive: 128% |  |
| CCCCC/C=C\C/C=C\C/C=C\CC1OC1CCCC(=O)O (stereo not given) |  | active: 37.7 µM |
| Cc1ccc(-n2c(CCC(=O)O)ccc2-c2cccs2)cc1C | inactive: -28.5% |  |
| CCOc1ccccc1Nc1nc2ccccc2[nH]1 | inactive: 64.7% |  |
| OCC[C@@H]1C[C@H](O)[C@@H](O)[C@@]2(CCc3ccccc3CO2)O1 | inactive: 20.5% |  |
| C=CCNC(=O)c1cn(CC)c2cc(N3CCN(C(=O)c4ccco4)CC3)c(F)cc2c1=O | inactive: 58.3% |  |
| CC(C)(C)NC[C@H](O)COc1nsnc1N1CCOCC1 |  | inactive |
| CCc1cccc(NC(=O)C2CCCN(S(=O)(=O)c3cccs3)C2)c1 (stereo not given) | inactive: 6.25% |  |
| CC(C)NC(=O)Nc1cccc2c1O[C@H](CN(C)C(=O)NC1CCCCC1)[C@@H](C)CN([C@H](C)CO)C2=O | inactive: 26.5% |  |
| Cc1ccc(NC(=O)CN2C(=O)COc3ccc(S(=O)(=O)N4CCCC4)cc32)cc1C | inactive: 64.6% |  |
| CSc1nc(N)c2ncn([C@@H]3O[C@H](COP(=O)(O)OP(=O)(O)OP(=O)(O)O)[C@@H](O)[C@H]3O)c2n1 |  | active: 11.9 µM |
| CCc1nn(CCCC(=O)NCc2cc(Br)ccc2OC)c(=O)c2cc3occc3n12 | inactive: 10.5% [at 11.4 µM] |  |
| O=C1ON=C(c2ccccc2)/C1=C\c1ccco1 | inactive: -26.4% |  |
| Cn1c(=O)n(C)c2cc(/C=N/n3cnnc3)ccc21 | inactive: 58.8% |  |
| COc1cc(OC)cc(C(=O)N2CCN(C(=O)c3cccc(F)c3)CC2)c1 | inactive: 55.9% |  |
| OCC[C@@H]1C[C@H](O)[C@@H](O)[C@@]2(OCCc3ccccc32)O1 | inactive: 15.5% |  |
| CCC(Oc1ccccc1)C(=O)Nc1nnc(S(=O)(=O)N2CCCCC2)s1 (stereo not given) | inactive: 66.6% |  |

| Structure (SMILES) | activity change, negative = inhibition | Potency |
| --- | --- | --- |
| CCn1cc(C(=O)NCCN(CC(C)C)CC(C)C)c(=O)c2cc(S(=O)(=O)N3CCOCC3)ccc21 | inactive: 67.4% |  |
| CC[C@@H]1CC=C[C@H]2[C@H]1C(=O)N(Cc1ccccc1)[C@H]2c1ccoc1 | inactive: -27.5% |  |
| CC(Cc1ccccc1)Nc1ncnc2c1ncn2C1OC(CO)C(O)C1O (stereo not given) | inactive: -0.61% |  |
| NCCS(=O)(=O)O |  | inactive |
| COc1cccc2c1cc1c(=O)n(CC(=O)N3CCN(c4cccc(C)c4C)CC3)nc(C)n12 | inactive: 15.8% |  |
| c1ccc(C(NCCNC(c2ccccc2)c2ccccc2)c2ccccc2)cc1 |  | inactive |
| CCCn1c(N)c(C(=O)CSc2nnc3n2CCCCC3)c(=O)n(C)c1=O | inactive: 133% |  |
| C=CCNC(=O)/C(=C\c1ccc(Br)cc1)NC(=O)c1ccccc1OC | inactive: -20.3% |  |
| COc1ccc2[nH]cc(CCNC(C)=O)c2c1 |  | inactive |
| CCOC(=O)c1c(NC(=O)c2cc(C(C)C)on2)sc(C(C)=O)c1C | inactive: 21.2% |  |
| CCc1nnc(NC(=O)c2nc(S(=O)(=O)Cc3ccc(C)cc3)ncc2Cl)s1 | inactive: -12.2% |  |
| Nc1nc(SCc2ccc([N+](=O)[O-])cc2)c2ncn([C@@H]3O[C@H](CO)[C@@H](O)[C@H]3O)c2n1 | inactive: 25% [at 56.9 µM] |  |
| CCOc1ccc(NC(=O)C(NC(=O)C2CCC(C)CC2)C(C)C)cc1 (stereo not given) | inactive: -20.7% |  |
| Cc1cccc(NC(=O)Cc2cccs2)n1 | inactive: 54.4% |  |
| COc1ccc(Nc2nnc(SCC(=O)N3CCCC3)s2)cc1 | inactive: 57.4% |  |
| O=C(CC(SCCO)c1ccc([N+](=O)[O-])cc1)c1ccco1 (stereo not given) | inactive: 57.8% |  |
| CCOC(=O)[C@@H]1[C@H]2COc3ccccc3[C@@H]2N2C(=O)N(c3ccc(C)cc3)C(=O)[C@]12C | inactive: -6.94% |  |
| O=Nc1c(-c2c(O)[nH]c3cc(Br)ccc23)[nH]c2ccccc12 | inactive: 5.48% |  |
| Nc1nc(SCc2ccc([N+](=O)[O-])cc2)c2ncn(C3OC(CO)C(O)C3O)c2n1 (stereo not given) | inactive: 2.31% |  |
| Cc1csc(NC(=O)CCc2ccc(S(=O)(=O)N3CCOCC3)cc2)n1 | inactive: 103% |  |
| Nc1ncnc2c1ncn2[C@@H]1O[C@H](COP(=O)(O)OP(=O)(O)OP(=O)(O)OP(=O)(O)OC[C@@H]2O[C@H](n3cnc4c(N)ncnc43)[C@@H](O)[C@H]2O)[C@@H](O)[C@H]1O |  | active: 2.99 µM |
| CCCC(=O)Nc1ncnc2c1ncn2[C@@H]1O[C@@H]2COP(=O)(O)O[C@H]2[C@H]1OC(=O)CCC |  | inactive |
| CC(C)(C)c1ccc(Oc2ccc(NC(=O)c3ccco3)cn2)cc1 | inactive: 56.5% |  |
| COC(=O)C1=C(C)N=C2SC(C#N)=C(N)N2C1c1cc(OC)c(OC)c(OC)c1 (stereo not given) | inactive: 78.4% |  |

| Structure (SMILES) | activity change, negative = inhibition | Potency |
| --- | --- | --- |
| Cc1ccccc1NC(=O)Cn1nnc(C(=O)NCc2ccco2)c1N | inactive: 12% |  |
| CC(=O)c1cccc(-n2c(CCC(=O)O)ccc2-c2ccccc2)c1 | inactive: -43% |  |
| OCCN1CCN(CCCN2c3ccccc3Sc3ccc(Cl)cc32)CC1 | inactive: -5.74% |  |
| CCOC(=O)c1cc(S(=O)(=O)Nc2ccc(F)cc2F)cn1C | inactive: 66.5% |  |
| O=C1/C(=C\c2ccccn2)SC(=S)N1Nc1ncc(C(F)(F)F)cc1Cl | inactive: -49.1% |  |
| O=C(CN(c1ccc(F)cc1)S(=O)(=O)c1ccc2c(c1)OCCO2)NCc1ccncc1 | inactive: 55.9% |  |
| CN1CCN(C(=O)C2=C[C@@H](C3CC3)C[C@@H](OCc3ccc(CO)cc3)O2)CC1 | inactive: 9.47% |  |
| CS(=O)(=O)Nc1ccc([N+](=O)[O-])cc1OC1CCCCC1 | inactive: 110% [at 56.9 µM] |  |
| C#Cc1cccc(Nc2ncnc3cc(OC)c(OC)cc23)c1 | inactive: 170% [at 56.9 µM] |  |
| OC(CCN1CCCCC1)(c1ccccc1)C1CCCCC1 (stereo not given) |  | inactive |
| CCC1(O)CC2CN(CCc3c([nH]c4ccccc34)C(C(=O)OC)(c3cc4c(cc3OC)N(C=O)C3C(O)(C(=O)OC)C(OC(C)=O)C5(CC)C=CCN6CCC43C65)C2)C1 (stereo not given) | inactive: -15.3% |  |
| COc1ccc(/C=C(\NC(=O)c2ccccc2)C(=O)NC2CCS(=O)(=O)C2)cc1 (stereo not given) | inactive: 8.37% [at 11.4 µM] |  |
| CCC(C)(C)C(=O)O[C@@H]1C[C@@H](C)C=C2C=C[C@H](C)[C@H](CC[C@@H]3C[C@@H](O)CC(=O)O3)[C@H]21 | inactive: -139% [at 56.9 µM] |  |
| CCOC(=O)[C@@H]1[C@H]2COc3cc(OC)ccc3[C@@H]2N2C(=O)N(c3ccc(C(F)(F)F)cc3)C(=O)[C@]12C | inactive: 1.44% |  |
| CC(C)NC[C@H](O)c1ccc(O)c(O)c1 |  | inactive |
| NCCS(=O)O |  | inactive |
| O=C(O)/C(=C\c1c(C(=O)O)[nH]c2cc(Cl)cc(Cl)c12)c1ccccc1 | inactive: -4.87% |  |
| O=C(c1cc(-c2ccc(F)cc2)on1)N1CCN(c2ccc(F)cc2)CC1 | inactive: 30.9% |  |
| Cc1ccc(-c2cccc(NC(=O)C3C4C=CC(C4)C3C(=O)O)c2)o1 (stereo not given) | inactive: -25.6% |  |
| CN(C)CCCO[C@@H]1[C@H]2OC(C)(C)O[C@H]2O[C@@H]1[C@H](O)CO |  | inactive |
| Clc1ccc(CSc2snnc2-c2ccccc2)c(Cl)c1 | inactive: 55.4% |  |
| C[N+](C)(CCOc1ccccc1)Cc1ccccc1 | inactive: -11.5% |  |
| NOCC(=O)O | inactive: -14.3% |  |
